# About 1,200 (2.5%) of roughly 48,000 compounds were called active. Inconclusive results (about 2%) are left out.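 How the source made its calls: active means activation of at least 60% and not above a set upper limit (about 1 call in 100 departs from these limits); inconclusive means activation of 40% to 60%, or above that upper limit; inactive means activation under 40%.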 This is one part of the list.
# Target: Probable G-protein coupled receptor 32 (Homo sapiens) (UniProt O75388)
# Experiment: qHTS for Agonists of Human Resolvin D1 Receptor DRV1
# Details: CHO-K1 GPR32 beta-arrestin PathHunter luminescence, 90 min; at 76.9 µM; stronger effect = higher value; zero percent set by DMSO-only wells
# Method in brief: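 Using DMSO wells as EC0, agonist-induced signal was taken as chemiluminescence from beta-Gal reconstituted upon beta-arrestin recruitment to GPR32 in CHO-K1 cells after 90 min compound treatment.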
# Chain of UniProt O75388 (O75388 whole entry, looked up): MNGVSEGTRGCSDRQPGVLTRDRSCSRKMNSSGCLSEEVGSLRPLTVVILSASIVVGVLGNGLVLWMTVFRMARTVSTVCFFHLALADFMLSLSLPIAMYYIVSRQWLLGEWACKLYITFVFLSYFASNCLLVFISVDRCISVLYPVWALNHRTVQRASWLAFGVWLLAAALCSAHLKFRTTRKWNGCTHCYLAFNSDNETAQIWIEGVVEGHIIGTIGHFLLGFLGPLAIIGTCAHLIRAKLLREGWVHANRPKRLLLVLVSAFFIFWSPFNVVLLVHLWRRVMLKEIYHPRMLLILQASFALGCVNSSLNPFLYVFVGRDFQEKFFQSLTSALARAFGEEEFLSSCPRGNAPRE
row,SMILES,activation
1,CCN(CC)CCOc1ccc(C(O)(Cc2ccc(Cl)cc2)c2ccc(C)cc2)cc1 (configuration not stated),active: 63.1%
2,CCC(=O)N1CCc2cc(CNS(=O)(=O)c3ccc(Cl)s3)ccc21,inactive: -1.3%
3,Cc1cccc(CN2C(=O)c3ccccc3Sc3ccc(C(=O)NCCc4ccccc4)cc32)c1,inactive: -12.2%
4,Cc1cc(Nc2cccc(F)c2)n2nc(-c3ccco3)nc2n1,inactive: 8.62%
5,CCC(C)NC(=O)c1sc2nc(C)c(C(=O)Nc3ccc(C)cc3C)c(-c3ccc(Br)cc3)c2c1N (configuration not stated),inactive: 9.87%
6,COc1cc(C2NC(=O)N(C)C3=C2C(=O)N(c2ccccc2)C3)ccc1O (configuration not stated),inactive: -2.66%
7,Cc1ccc2[nH]c(=O)c3cc(C(=O)N4CCN(c5ccccc5F)CC4)sc3c2c1,inactive: -8.61%
8,CC1=C(C(=O)Nc2ccc(C)c(C)c2)C2(CCCCCC2)OC1=O,inactive: -14.3%
9,O=C(CSc1nc(-c2ccccc2)cc(=O)[nH]1)Nc1ccccc1F,inactive: 22.3%
10,COc1ccc(-c2cnc(NCc3ccc(C)cc3)n2C)cc1,inactive: -23.1%
11,Cc1cccc(CSc2ncc(Cl)c(C(=O)Nc3sc4c(c3C#N)CCCC4)n2)c1,inactive: -33.9%
12,COc1ccccc1CNC(=O)c1nn(-c2ccc(C)cc2)c(=O)c2c1c1ccccc1n2C,inactive: -2.25%
13,COc1ccc(CCNC(=O)CSc2nc3ccccc3nc2Cc2ccc(C)cc2)cc1OC,inactive: 3.3%
14,O=C(NCc1ccccc1)c1cccc(NC(=O)N2CCSc3ncccc32)c1,inactive: 1.3%
15,CCCCCCCCCCCCCCCCCC(=O)NCC(COP(=O)([O-])OCC[N+](C)(C)C)OCC (configuration not stated),inactive: 1.68%
16,CCN(CC)c1nc2c(S(=O)(=O)c3ccc(C)cc3)nnn2c2ccsc12,inactive: -14.4%
17,COc1ccccc1NC(=O)CSc1oc(-c2cccs2)nc1S(=O)(=O)c1ccc(C)cc1,inactive: -16.7%
18,CCn1ccc2cc(S(=O)(=O)N3CCC(C(=O)NCc4ccc(OC(C)C)cc4)CC3)ccc21,inactive: 21.8%
19,O=C(CN1C(=O)COc2ccc(S(=O)(=O)N3CCCCC3)cc21)NCCc1ccc(Cl)cc1,inactive: -17.5%
20,CCCSc1nnc2c(n1)OC(CC)N(C(C)=O)c1ccccc1-2 (configuration not stated),inactive: 1.89%
21,COc1ccc(-c2nc3ccc(C(=O)NCc4ccccc4)cc3nc2-c2ccc(OC)cc2)cc1,inactive: -6.57%

row,SMILES,activation
1,Cc1ccccc1NC(=O)c1ccccc1NC(=O)c1ccccc1F,inactive: -18.4%
2,CCOc1ccccc1CNC(=O)Cn1nc(C)c2nn(-c3ccc(Cl)cc3)c(C)c2c1=O,inactive: -10.3%
3,COC(=O)COc1ccc(Oc2nc(NC(C)(C)C)nc(N3CCOCC3)n2)nn1,inactive: -7.56%
4,CC1=C(c2ccc(C)c(C)c2)S(=O)(=O)N(Cc2ccc(C(=O)NCc3ccc(C)cc3)cc2)C1=O,inactive: -7.83%
5,COc1ccc(Cc2nc3c4cnn(-c5ccccc5Br)c4ncn3n2)cc1,inactive: -10.4%
6,Cc1cccc(OCC(=O)NCc2ccc3c(c2)CCN3C(=O)c2ccccc2)c1,inactive: -25.9%
7,COc1ccc(N2CCN(S(=O)(=O)c3c(C)nc4sc(C)cn4c3=O)CC2)cc1,inactive: -5.78%
8,COc1ccc(-c2noc(-c3ccc(N4CCOCC4)c([N+](=O)[O-])c3)n2)cc1OC,inactive: 0.748%
9,CCOCCCNC(=O)N1CCN(S(=O)(=O)c2ccc3c(ccn3C)c2)CC1,inactive: 6.82%
10,CCOC(=O)c1ccc(NS(=O)(=O)c2cc3c(cc2C)n(C)c(=O)c(=O)n3C)cc1,inactive: 17.7%
11,Cn1c(=O)c2c(SCC(=O)NCC3CCCO3)nc(-c3ccccc3F)nc2n(C)c1=O (configuration not stated),inactive: -4.7%
12,COc1ccc(CNc2nc(-c3ccc(OC)c(OC)c3)cc(C(F)(F)F)n2)cc1,inactive: -13.3%
13,CCCCSCCCNC(=O)CN1C(=O)COc2ccc(S(=O)(=O)N3CCCC3)cc21,inactive: -8.01%
14,CCOc1ccc(CNC(=O)c2cnc(SC)nc2CC)cc1,inactive: -10%
15,CCOc1ccc(NC(=O)CSc2oc(-c3cccs3)nc2S(=O)(=O)c2ccc(Cl)cc2)cc1,inactive: -4.2%
16,O=C(Cn1c(=O)n(-c2ccccc2)c(=O)c2ccc(C(=O)NCc3ccc4c(c3)OCO4)cc21)Nc1ccc(Br)cc1F,inactive: -4.88%
17,COc1ccc(NC(=O)Cn2c(=O)n(-c3ccccc3)c(=O)c3ccc(C(=O)NCc4ccc5c(c4)OCO5)cc32)cc1,inactive: -15%
18,Cc1cc(NC(=O)c2ccc(Cl)c(Cl)c2)ccc1-c1cc2ccccc2oc1=O,inactive: 13.7%
19,Cc1ccc(CNC(=O)CSc2nc3ccsc3c(=O)n2-c2ccc(C(=O)O)cc2)cc1,inactive: -13.2%
20,CCN(CCCNC(=O)c1cc2cc3cc(OC)ccc3nc2s1)c1ccccc1,inactive: -15.5%
21,CCCSc1ncc(Cl)c(C(=O)Nc2ccc(CC)cc2)n1,inactive: -24.4%

row,SMILES,activation
1,Oc1cccc(Nc2nc(-c3ccccc3)nc3ccccc23)c1,active: 60.6%
2,CC1(C)C(=O)N(CC(=O)Nc2ccc(OC(F)(F)F)cc2)c2ccccc21,inactive: -12.5%
3,O=C(CSC1=Nc2ccccc2C2=NC(CCC(=O)NC3CCCCC3)C(=O)N12)Nc1cccc(Cl)c1 (configuration not stated),inactive: -16.3%
4,COc1cccc(NC(=O)CCNS(=O)(=O)c2ccc3c(c2)CCCC(=O)N3)c1,inactive: 1.45%
5,CCOC(=O)c1c(C)[nH]c(C)c1S(=O)(=O)N(C)CC(=O)Nc1cc(Cl)ccc1OC,inactive: -37.1%
6,CCOC(=O)C1CCC(CN(Cc2c(Cl)cccc2Cl)S(=O)(=O)c2ccc(F)c(C)c2)CC1 (configuration not stated),inactive: -21.7%
7,NC(=O)C1(N2CCCCC2)CCN(C(=O)Nc2ccc(Cl)c(Cl)c2)CC1,inactive: -9.82%
8,Cc1ccc(C)c(N2CCN(C(=O)C3CCN(Cc4nc(-c5cccc(Cl)c5)oc4C)CC3)CC2)c1,inactive: 20.8%
9,COc1ccc(CNC(=O)c2cc3sccc3n2C)cc1,inactive: -8.31%
10,Cc1ccc2nc(SC(Cc3cc(Cl)ccc3Cl)C(=O)O)[nH]c2c1 (configuration not stated),inactive: 8.86%
11,COc1ccc(N2CCN(C(=O)c3cc4c(=O)n(Cc5cccs5)ccc4nc3C)CC2)cc1,inactive: -29.9%
12,Cc1cc(Cl)ccc1NC(=O)C1CCN(S(=O)(=O)c2ccc3[nH]c(=O)ccc3c2)CC1,inactive: -1.73%
13,COc1cccc(NC(=O)c2sc3nc(C)c(C(=O)Nc4ccc(C)cc4C)c(-c4ccc(Br)cc4)c3c2N)c1,inactive: 19.1%
14,Cc1cccc(Cn2c(=O)n(CCc3ccccc3)c(=O)c3sc4ccccc4c32)c1,inactive: -6.49%
15,Cc1ccc(CCNC(=O)CCSCc2ccccc2F)cc1,inactive: -25.5%
16,CN1C2CCC1CC(OC(c1ccccc1)c1ccccc1)C2 (configuration not stated),inactive: -6.32%
17,Cc1ccc(C2c3[nH]c4ccccc4c3CCN2C(=O)c2ccc(N(C)C)cc2)cc1 (configuration not stated),inactive: -34.3%
18,O=C(CCOc1ccccc1)N(Cc1cccnc1)c1nc2c(Cl)cccc2s1,inactive: 1.58%
19,CCOC(=O)c1cc(-c2ccccc2)nn1Cc1ccccc1,inactive: -10.1%
20,CCOC(=O)N1CCc2c(sc3c2c(=O)n(Cc2ccccc2)c(=O)n3CC(=O)Nc2ccccc2F)C1,inactive: -16%
21,COc1ccc(C)cc1NC(=O)C(CCSC)NS(=O)(=O)c1ccc2c(c1)oc(=O)n2C (configuration not stated),inactive: -16.9%

row,SMILES,activation
1,CCn1nnc2cc(C(=O)Nc3cccc(C(F)(F)F)c3)ccc21,inactive: 6.31%
2,Cc1ccc2oc(C(=O)Nc3c(C(=O)c4ccc(C)c(F)c4)oc4ccccc34)cc(=O)c2c1,inactive: -1.53%
3,O=S(=O)(Nc1c(F)cccc1F)c1ccc2c(c1)OCCO2,inactive: -3%
4,COc1ccc(CN(C(=O)Nc2ccccc2)c2ccccn2)cc1OC,inactive: -23.7%
5,CCOC(=O)c1c(C)[nH]c(CCC(=O)Nc2ccc(N(CC)CC)cc2C)c1C,inactive: 8.35%
6,CC(C)NC(=O)c1cnc2sc(N3CCCCCC3)nn2c1=O,inactive: -0.0224%
7,Cc1ccc(S(=O)(=O)N(Cc2nc(-c3ccc(Cl)cc3)no2)C2CCCCC2)cc1,inactive: -24.7%
8,COc1ccc(NC(=O)CCS(=O)(=O)c2nc(-c3cccs3)cc(C(F)(F)F)n2)cc1OC,inactive: -18.4%
9,COc1ccc(N(C(=O)/C=C\C(=O)Nc2ccc(Cl)cc2)C(C(=O)NCc2ccco2)c2ccc(C)cc2)cc1 (configuration not stated),inactive: -19.4%
10,COc1ccc(OC)c(S(=O)(=O)Nc2cc3c(cc2C)n(C)c(=O)c(=O)n3C)c1,inactive: 1.45%
11,CN(Cc1ccccc1)C(=O)CN1C(=O)CSc2ccc(S(=O)(=O)N3CCOCC3)cc21,inactive: -16.6%
12,COc1ccccc1NC(=O)Cn1c(=O)n(Cc2ccc3c(c2)OCO3)c(=O)c2oc3ccccc3c21,inactive: -22.8%
13,CCc1ccc(-c2cn3c(n2)sc2cc(C(=O)NCCc4ccc(OC)cc4OC)ccc23)cc1,inactive: -3.01%
14,O=C(c1noc2c1CCCCC2)N1CCN(c2ccc(Cl)cc2)CC1,inactive: -21.5%
15,C#CC(C)(C)NS(=O)(=O)c1cc(-c2nnc(Nc3ccc(C)cc3)c3ccccc23)ccc1C,inactive: 43.1%
16,Cc1ccc(NC(=O)CN(c2ccccc2)S(=O)(=O)N(C)C)cc1Cl,inactive: 43.1%
17,Cc1ccc(NC(=O)NCc2ccc3c(c2)CCN3C(=O)c2ccccc2)c(Cl)c1,inactive: -14.2%
18,COc1ccc(NC(=O)c2cn(CC(C)C)c(=O)c3cc(OC)c(OC)cc23)cc1Cl,inactive: -3.22%
19,NS(=O)(=O)c1ccc(CCNC(=O)CCCCCn2c(=O)[nH]c3ccccc3c2=O)cc1,inactive: -11.1%

# Reference: PubChem BioAssay AID1346428 (National Center for Advancing Translational Sciences (NCATS), 2018)
